Test results taken from PMC3963969.
Results are given in words; binding and its absence hold for the method and conditions named. Binding seen in cells or lysates may run through a third protein. Some binding calls cover weakened binding; strength is not graded here. For some assays here: Tags and fused reporters may be left off the sequences shown.

Amino acid sequences for entries named in this document (tags omitted). A change or cut given only in a name is not applied to a line headed by its entry.
UniProt Q02099: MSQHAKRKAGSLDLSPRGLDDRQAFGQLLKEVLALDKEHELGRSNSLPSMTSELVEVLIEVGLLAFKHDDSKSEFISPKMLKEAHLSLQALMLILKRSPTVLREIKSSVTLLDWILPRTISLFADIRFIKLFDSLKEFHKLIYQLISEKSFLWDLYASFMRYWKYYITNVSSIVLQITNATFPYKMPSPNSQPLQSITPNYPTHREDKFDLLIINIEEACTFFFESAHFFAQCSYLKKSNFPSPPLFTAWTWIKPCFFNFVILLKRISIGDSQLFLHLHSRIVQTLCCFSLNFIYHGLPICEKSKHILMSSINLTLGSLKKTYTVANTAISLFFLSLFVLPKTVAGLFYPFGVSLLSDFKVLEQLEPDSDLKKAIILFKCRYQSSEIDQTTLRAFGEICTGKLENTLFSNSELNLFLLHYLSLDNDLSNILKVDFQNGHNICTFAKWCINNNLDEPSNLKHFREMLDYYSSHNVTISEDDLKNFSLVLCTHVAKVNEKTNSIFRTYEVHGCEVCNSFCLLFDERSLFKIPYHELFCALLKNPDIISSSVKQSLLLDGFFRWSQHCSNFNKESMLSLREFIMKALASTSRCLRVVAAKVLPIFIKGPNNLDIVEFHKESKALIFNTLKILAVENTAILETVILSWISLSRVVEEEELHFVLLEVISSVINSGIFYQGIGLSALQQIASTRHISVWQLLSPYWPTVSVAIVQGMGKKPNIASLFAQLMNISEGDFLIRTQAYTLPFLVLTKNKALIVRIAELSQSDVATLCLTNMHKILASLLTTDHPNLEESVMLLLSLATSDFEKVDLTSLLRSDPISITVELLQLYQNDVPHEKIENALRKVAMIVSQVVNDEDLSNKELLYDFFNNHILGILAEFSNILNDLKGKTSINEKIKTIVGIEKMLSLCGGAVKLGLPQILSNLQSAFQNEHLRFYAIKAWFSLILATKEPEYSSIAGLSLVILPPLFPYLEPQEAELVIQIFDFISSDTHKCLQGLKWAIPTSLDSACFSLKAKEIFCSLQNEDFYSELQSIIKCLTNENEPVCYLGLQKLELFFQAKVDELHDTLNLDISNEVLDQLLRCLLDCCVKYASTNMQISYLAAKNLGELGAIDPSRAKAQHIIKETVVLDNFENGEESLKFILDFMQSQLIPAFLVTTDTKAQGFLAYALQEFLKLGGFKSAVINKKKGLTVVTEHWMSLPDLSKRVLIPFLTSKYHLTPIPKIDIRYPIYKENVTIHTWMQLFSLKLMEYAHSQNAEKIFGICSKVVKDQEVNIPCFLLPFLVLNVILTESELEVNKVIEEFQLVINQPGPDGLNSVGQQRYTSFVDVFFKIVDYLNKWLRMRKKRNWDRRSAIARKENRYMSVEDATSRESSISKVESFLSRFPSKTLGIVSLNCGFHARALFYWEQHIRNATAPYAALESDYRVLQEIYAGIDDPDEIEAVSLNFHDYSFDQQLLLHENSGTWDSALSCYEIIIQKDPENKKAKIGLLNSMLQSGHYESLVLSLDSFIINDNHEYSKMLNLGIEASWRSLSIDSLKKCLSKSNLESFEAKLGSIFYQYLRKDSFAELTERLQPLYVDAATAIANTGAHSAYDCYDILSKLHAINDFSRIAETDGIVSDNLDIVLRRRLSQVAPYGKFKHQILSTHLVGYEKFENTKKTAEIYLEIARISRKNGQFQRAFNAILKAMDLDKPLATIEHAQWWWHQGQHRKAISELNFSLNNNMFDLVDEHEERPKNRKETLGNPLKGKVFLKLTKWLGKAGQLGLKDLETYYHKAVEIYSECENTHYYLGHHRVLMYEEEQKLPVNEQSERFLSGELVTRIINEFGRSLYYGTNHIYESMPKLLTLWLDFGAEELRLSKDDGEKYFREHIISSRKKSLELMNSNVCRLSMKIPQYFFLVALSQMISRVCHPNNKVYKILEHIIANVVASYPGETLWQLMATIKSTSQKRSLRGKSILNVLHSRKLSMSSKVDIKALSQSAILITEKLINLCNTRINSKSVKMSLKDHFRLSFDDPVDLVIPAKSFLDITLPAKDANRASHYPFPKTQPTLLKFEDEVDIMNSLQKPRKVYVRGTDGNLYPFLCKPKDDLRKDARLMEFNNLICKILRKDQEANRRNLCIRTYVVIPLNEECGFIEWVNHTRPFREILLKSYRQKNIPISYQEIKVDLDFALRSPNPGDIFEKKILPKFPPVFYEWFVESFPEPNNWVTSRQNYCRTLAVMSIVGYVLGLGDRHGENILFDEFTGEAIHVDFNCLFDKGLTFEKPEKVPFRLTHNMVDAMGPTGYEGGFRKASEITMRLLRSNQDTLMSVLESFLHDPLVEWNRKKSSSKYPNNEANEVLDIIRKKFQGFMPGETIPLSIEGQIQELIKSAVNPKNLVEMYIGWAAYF

Assays:
Rad26-Flag (S. pombe) = target: T1, Rad26-Flag (S. pombe) (UniProt P36632); experiment: co-IP; Rad3-Rad26-Flag from S. pombe cell extract on anti-Flag M2 antibody beads, washed in TBS-T, eluted with Flag peptide; Rad3 detected with anti-HA, Rad26 with anti-Flag
T1 sequence: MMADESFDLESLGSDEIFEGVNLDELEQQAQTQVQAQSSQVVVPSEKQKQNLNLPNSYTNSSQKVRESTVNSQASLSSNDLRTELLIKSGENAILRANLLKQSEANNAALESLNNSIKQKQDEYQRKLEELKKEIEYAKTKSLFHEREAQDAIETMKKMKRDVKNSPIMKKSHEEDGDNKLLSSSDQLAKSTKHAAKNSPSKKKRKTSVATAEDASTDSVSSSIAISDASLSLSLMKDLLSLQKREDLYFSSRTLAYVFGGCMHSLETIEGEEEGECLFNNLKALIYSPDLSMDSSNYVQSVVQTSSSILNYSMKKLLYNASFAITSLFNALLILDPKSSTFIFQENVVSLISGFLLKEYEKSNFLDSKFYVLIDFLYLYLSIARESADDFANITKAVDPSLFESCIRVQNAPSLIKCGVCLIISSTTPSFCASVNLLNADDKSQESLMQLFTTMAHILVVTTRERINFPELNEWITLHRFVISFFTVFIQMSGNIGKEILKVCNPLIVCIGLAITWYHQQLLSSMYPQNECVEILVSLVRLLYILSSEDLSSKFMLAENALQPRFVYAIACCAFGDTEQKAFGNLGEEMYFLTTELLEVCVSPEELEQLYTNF

[1] = target: T2, HA-Rad9, phosphorylated at Thr412 (S. pombe) (UniProt P26306); experiment: condition: only after λ phosphatase treatment of the beads; co-IP; Rad4 co-IPed with Rad9 from HU-treated cells on anti-HA antibody beads; beads then treated with λ phosphatase with or without phosphatase inhibitor and washed
T2 sequence (chain, phosphothreonine at 412 (detected with the phospho-specific antibody)): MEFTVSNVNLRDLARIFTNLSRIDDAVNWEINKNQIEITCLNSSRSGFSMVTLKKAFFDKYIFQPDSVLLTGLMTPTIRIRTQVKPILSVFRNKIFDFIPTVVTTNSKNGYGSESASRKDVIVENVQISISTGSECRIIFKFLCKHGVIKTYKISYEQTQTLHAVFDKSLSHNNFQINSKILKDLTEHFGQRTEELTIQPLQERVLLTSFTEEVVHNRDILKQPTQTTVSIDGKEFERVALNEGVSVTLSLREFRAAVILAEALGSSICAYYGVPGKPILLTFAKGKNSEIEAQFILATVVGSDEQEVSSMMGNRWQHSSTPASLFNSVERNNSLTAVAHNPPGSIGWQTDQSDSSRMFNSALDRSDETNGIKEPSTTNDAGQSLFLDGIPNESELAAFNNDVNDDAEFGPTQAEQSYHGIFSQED

[2] = target: T2, HA-Rad9, phosphorylated at Thr412 (S. pombe); experiment: co-IP; HA-Rad9 or HA-Crb2 precipitated with anti-HA antibody beads from lysates of MMS- or HU-treated S. pombe; Rad4 detected with anti-Rad4 antibodies
[3] = target: T3, Rad9-T412A (phosphorylation site mutant) (S. pombe) (UniProt P26306); experiment: as above
T3 sequence: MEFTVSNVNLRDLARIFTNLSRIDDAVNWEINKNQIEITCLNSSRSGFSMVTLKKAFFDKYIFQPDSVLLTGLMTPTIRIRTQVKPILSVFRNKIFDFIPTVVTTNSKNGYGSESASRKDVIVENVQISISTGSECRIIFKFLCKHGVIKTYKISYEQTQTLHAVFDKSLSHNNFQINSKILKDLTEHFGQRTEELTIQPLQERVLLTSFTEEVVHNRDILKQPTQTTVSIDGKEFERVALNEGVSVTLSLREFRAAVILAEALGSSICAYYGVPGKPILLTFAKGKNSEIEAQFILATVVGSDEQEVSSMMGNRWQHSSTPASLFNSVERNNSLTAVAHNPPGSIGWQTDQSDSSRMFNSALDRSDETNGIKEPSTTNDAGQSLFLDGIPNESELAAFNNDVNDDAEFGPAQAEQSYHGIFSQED

HA-Crb2 (S. pombe) = target: T4, HA-Crb2 (S. pombe) (UniProt P87074); experiment: as above
T4 sequence: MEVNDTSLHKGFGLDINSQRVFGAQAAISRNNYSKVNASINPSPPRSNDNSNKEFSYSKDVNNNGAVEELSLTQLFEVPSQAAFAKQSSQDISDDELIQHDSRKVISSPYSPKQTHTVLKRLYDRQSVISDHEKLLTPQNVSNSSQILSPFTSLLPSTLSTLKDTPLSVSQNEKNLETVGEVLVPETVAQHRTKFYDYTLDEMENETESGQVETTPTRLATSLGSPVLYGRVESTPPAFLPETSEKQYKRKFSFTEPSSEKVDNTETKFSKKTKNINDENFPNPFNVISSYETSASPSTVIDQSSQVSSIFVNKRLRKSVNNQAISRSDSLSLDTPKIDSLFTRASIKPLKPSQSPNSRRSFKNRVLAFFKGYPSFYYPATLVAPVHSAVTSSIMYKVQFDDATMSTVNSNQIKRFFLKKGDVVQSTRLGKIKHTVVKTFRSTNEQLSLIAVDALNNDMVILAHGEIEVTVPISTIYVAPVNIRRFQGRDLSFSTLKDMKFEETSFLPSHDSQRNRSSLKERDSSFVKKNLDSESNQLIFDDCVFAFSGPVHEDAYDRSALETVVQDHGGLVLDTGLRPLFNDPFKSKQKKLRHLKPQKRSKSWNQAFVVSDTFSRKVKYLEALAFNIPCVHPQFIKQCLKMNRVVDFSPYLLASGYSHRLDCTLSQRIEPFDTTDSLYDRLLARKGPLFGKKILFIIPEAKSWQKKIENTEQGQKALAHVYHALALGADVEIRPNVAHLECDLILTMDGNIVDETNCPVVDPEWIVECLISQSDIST

Row | Molecule | binding [2] | binding (HA-Crb2 (S. pombe)) | further results
1 | Rad3(D2249E), kinase-inactive (from UniProt Q02099 1-2386) (enzyme) | – | – | binding (Rad26-Flag (S. pombe)): binds
2 | Rad3 (from UniProt Q02099 1-2386) (enzyme) | – | – | binding (Rad26-Flag (S. pombe)): binds
3 | Rad4 (wild type) (protein, UniProt P32372 1-648) MGSSKPLKGFVICCTSIDLKQRTEISTKATKLGAAYRSDFTKDVTHLIAGDFDTPKYKFAAKSRPDIKIMSSEWIPVLYESWVQGEDLDDGLLVDKHFLPTLFKCRVCLTNIGQPERSRIENYVLKHGGTFCPDLTRDVTHLIAGTSSGRKYEYALKWKINVVCVEWLWQSIQRNAVLEPQYFQLDMPAEKIGLGAYVRLDPNTTEAKSYSENQKISKNKEKSGQSLAALAEEADLEPVIMKRGKKRDRSILWEELNNGKFEFSSRSEENSVLLDDFTPETVQPLEENELDTELNIENEAKLFKNLTFYLYEFPNTKVSRLHKCLSDNGGQISEFLSSTIDFVVIPHYFPVDELPIFSFPTVNEWWIERCLYYKKIFGIDEHALAKPFFRPSLVPYFNGLSIHLTGFKGEELSHLKKALTILGAVVHEFLGVQRSILLVNTNEPFSMKTRFKIQHATEWNVRVVGVAWLWNIIQSGKFIDQVSPWAIDKKENQEIKKFTNQNNMVFPTSDRDTRLQNSLAQQPIGHSTPHNSPSLLSVKKRQNNHIRSNTLIQLNSNSKDSTIFPRRSVTVPGDKIDTVWKSSVTKPETPTSPQEHVSYIDPDAQREKHKLYAQLTSNVDAIPPANDLQNQENGLLLITESHRKLRRR | binds | binds | binding [1]: no binding; binding [3]: no binding
4 | Rad9 as co-precipitated with Crb2 (protein, UniProt P26306 1-426) MEFTVSNVNLRDLARIFTNLSRIDDAVNWEINKNQIEITCLNSSRSGFSMVTLKKAFFDKYIFQPDSVLLTGLMTPTIRIRTQVKPILSVFRNKIFDFIPTVVTTNSKNGYGSESASRKDVIVENVQISISTGSECRIIFKFLCKHGVIKTYKISYEQTQTLHAVFDKSLSHNNFQINSKILKDLTEHFGQRTEELTIQPLQERVLLTSFTEEVVHNRDILKQPTQTTVSIDGKEFERVALNEGVSVTLSLREFRAAVILAEALGSSICAYYGVPGKPILLTFAKGKNSEIEAQFILATVVGSDEQEVSSMMGNRWQHSSTPASLFNSVERNNSLTAVAHNPPGSIGWQTDQSDSSRMFNSALDRSDETNGIKEPSTTNDAGQSLFLDGIPNESELAAFNNDVNDDAEFGPTQAEQSYHGIFSQED | – | binds | –
5 | Rad4 C13Y-K56R (protein, UniProt P32372 1-648) MGSSKPLKGFVIYCTSIDLKQRTEISTKATKLGAAYRSDFTKDVTHLIAGDFDTPRYKFAAKSRPDIKIMSSEWIPVLYESWVQGEDLDDGLLVDKHFLPTLFKCRVCLTNIGQPERSRIENYVLKHGGTFCPDLTRDVTHLIAGTSSGRKYEYALKWKINVVCVEWLWQSIQRNAVLEPQYFQLDMPAEKIGLGAYVRLDPNTTEAKSYSENQKISKNKEKSGQSLAALAEEADLEPVIMKRGKKRDRSILWEELNNGKFEFSSRSEENSVLLDDFTPETVQPLEENELDTELNIENEAKLFKNLTFYLYEFPNTKVSRLHKCLSDNGGQISEFLSSTIDFVVIPHYFPVDELPIFSFPTVNEWWIERCLYYKKIFGIDEHALAKPFFRPSLVPYFNGLSIHLTGFKGEELSHLKKALTILGAVVHEFLGVQRSILLVNTNEPFSMKTRFKIQHATEWNVRVVGVAWLWNIIQSGKFIDQVSPWAIDKKENQEIKKFTNQNNMVFPTSDRDTRLQNSLAQQPIGHSTPHNSPSLLSVKKRQNNHIRSNTLIQLNSNSKDSTIFPRRSVTVPGDKIDTVWKSSVTKPETPTSPQEHVSYIDPDAQREKHKLYAQLTSNVDAIPPANDLQNQENGLLLITESHRKLRRR | binds | no binding | –
6 | Rad4(ΔC), deletion of the whole C-terminus between amino acid 498 and 648 (domain or fragment, UniProt P32372 1-497) MGSSKPLKGFVICCTSIDLKQRTEISTKATKLGAAYRSDFTKDVTHLIAGDFDTPKYKFAAKSRPDIKIMSSEWIPVLYESWVQGEDLDDGLLVDKHFLPTLFKCRVCLTNIGQPERSRIENYVLKHGGTFCPDLTRDVTHLIAGTSSGRKYEYALKWKINVVCVEWLWQSIQRNAVLEPQYFQLDMPAEKIGLGAYVRLDPNTTEAKSYSENQKISKNKEKSGQSLAALAEEADLEPVIMKRGKKRDRSILWEELNNGKFEFSSRSEENSVLLDDFTPETVQPLEENELDTELNIENEAKLFKNLTFYLYEFPNTKVSRLHKCLSDNGGQISEFLSSTIDFVVIPHYFPVDELPIFSFPTVNEWWIERCLYYKKIFGIDEHALAKPFFRPSLVPYFNGLSIHLTGFKGEELSHLKKALTILGAVVHEFLGVQRSILLVNTNEPFSMKTRFKIQHATEWNVRVVGVAWLWNIIQSGKFIDQVSPWAIDKKENQEIKK | binds | – | –
7 | Rad4 E368K (protein, UniProt P32372 1-648) MGSSKPLKGFVICCTSIDLKQRTEISTKATKLGAAYRSDFTKDVTHLIAGDFDTPKYKFAAKSRPDIKIMSSEWIPVLYESWVQGEDLDDGLLVDKHFLPTLFKCRVCLTNIGQPERSRIENYVLKHGGTFCPDLTRDVTHLIAGTSSGRKYEYALKWKINVVCVEWLWQSIQRNAVLEPQYFQLDMPAEKIGLGAYVRLDPNTTEAKSYSENQKISKNKEKSGQSLAALAEEADLEPVIMKRGKKRDRSILWEELNNGKFEFSSRSEENSVLLDDFTPETVQPLEENELDTELNIENEAKLFKNLTFYLYEFPNTKVSRLHKCLSDNGGQISEFLSSTIDFVVIPHYFPVDELPIFSFPTVNEWWIKRCLYYKKIFGIDEHALAKPFFRPSLVPYFNGLSIHLTGFKGEELSHLKKALTILGAVVHEFLGVQRSILLVNTNEPFSMKTRFKIQHATEWNVRVVGVAWLWNIIQSGKFIDQVSPWAIDKKENQEIKKFTNQNNMVFPTSDRDTRLQNSLAQQPIGHSTPHNSPSLLSVKKRQNNHIRSNTLIQLNSNSKDSTIFPRRSVTVPGDKIDTVWKSSVTKPETPTSPQEHVSYIDPDAQREKHKLYAQLTSNVDAIPPANDLQNQENGLLLITESHRKLRRR | no binding | – | –
